The labels stand for the following.
T1: RBFOX1 RRM (Homo sapiens, UniProt Q9NWB1 109-208)
T1 sequence: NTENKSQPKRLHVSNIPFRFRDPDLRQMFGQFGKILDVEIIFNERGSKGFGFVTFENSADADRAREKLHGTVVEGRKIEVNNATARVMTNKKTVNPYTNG

B1: CACAAGC (DNA:RNA)
RNA: GGGAGACCGGAAUUCAGAUUGUCCCACAAGCUUAAAUCCCGUCGUAGCCACCA
DNA 1: CAATCTGAATTCCGGTCTCCC
DNA 2: TGGTGGCTACGACGGGATT
B2: ACUUGGA (DNA:RNA)
RNA: B1 RNA with C25A, A26C, C27U, A28U, A29G, C31A
DNA 1: CAATCTGAATTCCGGTCTCCC
DNA 2: TGGTGGCTACGACGGGATT
B3: AACGAAU (DNA:RNA)
RNA: B1 RNA with C25A, A28G, G30A, C31U
DNA 1: CAATCTGAATTCCGGTCTCCC
DNA 2: TGGTGGCTACGACGGGATT
B4: GCAUCGU (DNA:RNA)
RNA: B1 RNA with C25G, A26C, C27A, A28U, A29C, C31U
DNA 1: CAATCTGAATTCCGGTCTCCC
DNA 2: TGGTGGCTACGACGGGATT
B5: GGGACGA (DNA:RNA)
RNA: B1 RNA with C25G, A26G, C27G, A29C, C31A
DNA 1: CAATCTGAATTCCGGTCTCCC
DNA 2: TGGTGGCTACGACGGGATT
B6: GCUCUGG (DNA:RNA)
RNA: B1 RNA with C25G, A26C, C27U, A28C, A29U, C31G
DNA 1: CAATCTGAATTCCGGTCTCCC
DNA 2: TGGTGGCTACGACGGGATT
B7: CAUACGC (DNA:RNA)
RNA: B1 RNA with C27U, A29C
DNA 1: CAATCTGAATTCCGGTCTCCC
DNA 2: TGGTGGCTACGACGGGATT
B8: GAGAUCU (DNA:RNA)
RNA: B1 RNA with C25G, C27G, A29U, G30C, C31U
DNA 1: CAATCTGAATTCCGGTCTCCC
DNA 2: TGGTGGCTACGACGGGATT
B9: AGCGCGG (DNA:RNA)
RNA: B1 RNA with C25A, A26G, A28G, A29C, C31G
DNA 1: CAATCTGAATTCCGGTCTCCC
DNA 2: TGGTGGCTACGACGGGATT
B10: ACUUCAG (DNA:RNA)
RNA: GGGAGACCGGAAUUCAGAUUGUCCACUUCAGUUAAAUCCCGUCGUAGCCACCA
DNA 1: CAATCTGAATTCCGGTCTCCC
DNA 2: TGGTGGCTACGACGGGATT
B11: AAUUAAG (DNA:RNA)
RNA: B10 RNA with C26A, C29A
DNA 1: CAATCTGAATTCCGGTCTCCC
DNA 2: TGGTGGCTACGACGGGATT
B12: AUCAUGC (DNA:RNA)
RNA: B1 RNA with C25A, A26U, A29U
DNA 1: CAATCTGAATTCCGGTCTCCC
DNA 2: TGGTGGCTACGACGGGATT
B13: CUUAUUC (DNA:RNA)
RNA: B1 RNA with A26U, C27U, A29U, G30U
DNA 1: CAATCTGAATTCCGGTCTCCC
DNA 2: TGGTGGCTACGACGGGATT
B14: UGCAAUG (DNA:RNA)
RNA: B1 RNA with C25U, A26G, G30U, C31G
DNA 1: CAATCTGAATTCCGGTCTCCC
DNA 2: TGGTGGCTACGACGGGATT
B15: CCGCGAC (DNA:RNA)
RNA: B10 RNA with A25C, U27G, U28C, C29G, G31C
DNA 1: CAATCTGAATTCCGGTCTCCC
DNA 2: TGGTGGCTACGACGGGATT
B16: GGUACUA (DNA:RNA)
RNA: B10 RNA with A25G, C26G, U28A, A30U, G31A
DNA 1: CAATCTGAATTCCGGTCTCCC
DNA 2: TGGTGGCTACGACGGGATT
B17: UCGUCUC (DNA:RNA)
RNA: B10 RNA with A25U, U27G, A30U, G31C
DNA 1: CAATCTGAATTCCGGTCTCCC
DNA 2: TGGTGGCTACGACGGGATT
B18: CGCACGG (DNA:RNA)
RNA: B1 RNA with A26G, A29C, C31G
DNA 1: CAATCTGAATTCCGGTCTCCC
DNA 2: TGGTGGCTACGACGGGATT
B19: UAAGGAA (DNA:RNA)
RNA: B10 RNA with A25U, C26A, U27A, U28G, C29G, G31A
DNA 1: CAATCTGAATTCCGGTCTCCC
DNA 2: TGGTGGCTACGACGGGATT
B20: GCAGUCU (DNA:RNA)
RNA: B10 RNA with A25G, U27A, U28G, C29U, A30C, G31U
DNA 1: CAATCTGAATTCCGGTCTCCC
DNA 2: TGGTGGCTACGACGGGATT
B21: GUCAAUA (DNA:RNA)
RNA: B1 RNA with C25G, A26U, G30U, C31A
DNA 1: CAATCTGAATTCCGGTCTCCC
DNA 2: TGGTGGCTACGACGGGATT
B22: GUACGCC (DNA:RNA)
RNA: B1 RNA with C25G, A26U, C27A, A28C, A29G, G30C
DNA 1: CAATCTGAATTCCGGTCTCCC
DNA 2: TGGTGGCTACGACGGGATT
B23: AACUAUU (DNA:RNA)
RNA: B1 RNA with C25A, A28U, G30U, C31U
DNA 1: CAATCTGAATTCCGGTCTCCC
DNA 2: TGGTGGCTACGACGGGATT
B24: AGUCUGU (DNA:RNA)
RNA: B10 RNA with C26G, U28C, C29U, A30G, G31U
DNA 1: CAATCTGAATTCCGGTCTCCC
DNA 2: TGGTGGCTACGACGGGATT
B25: GUGGCAA (DNA:RNA)
RNA: B10 RNA with A25G, C26U, U27G, U28G, G31A
DNA 1: CAATCTGAATTCCGGTCTCCC
DNA 2: TGGTGGCTACGACGGGATT
B26: GAUUGUA (DNA:RNA)
RNA: B10 RNA with A25G, C26A, C29G, A30U, G31A
DNA 1: CAATCTGAATTCCGGTCTCCC
DNA 2: TGGTGGCTACGACGGGATT
B27: GUCGCCA (DNA:RNA)
RNA: B10 RNA with A25G, C26U, U27C, U28G, A30C, G31A
DNA 1: CAATCTGAATTCCGGTCTCCC
DNA 2: TGGTGGCTACGACGGGATT
B28: UCUUUUU (DNA:RNA)
RNA: B10 RNA with A25U, C29U, A30U, G31U
DNA 1: CAATCTGAATTCCGGTCTCCC
DNA 2: TGGTGGCTACGACGGGATT
B29: GACUUAC (DNA:RNA)
RNA: B1 RNA with C25G, A28U, A29U, G30A
DNA 1: CAATCTGAATTCCGGTCTCCC
DNA 2: TGGTGGCTACGACGGGATT
B30: CUCUCCU (DNA:RNA)
RNA: B10 RNA with A25C, C26U, U27C, A30C, G31U
DNA 1: CAATCTGAATTCCGGTCTCCC
DNA 2: TGGTGGCTACGACGGGATT
B31: GCCGCAG (DNA:RNA)
RNA: B10 RNA with A25G, U27C, U28G
DNA 1: CAATCTGAATTCCGGTCTCCC
DNA 2: TGGTGGCTACGACGGGATT

Residue numbers refer to the chain shown, from its start. The list shows a part of the results.

The target of this experiment is T1, RBFOX1 RRM. The experiment in a line: EMSA; HiTS-Eq, 1 nM pool, 10 min; buffer printed only for the single-RNA assays: 10 mM Tris pH 7.5, 150 mM NaCl, 3.4 mM EDTA, 0.001% NP-40, 30 C. The settings on record: tags: His6 N-terminal (pET28a); label: 5' 32P. In outline:
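These values rest on relative association constants, computed from read-count changes of each RNA species versus the control reaction and normalised to the cognate motif. Reads came from free RNA recovered by 8% native PAGE after purified RbFox RRM (wild type or mutant) at increasing concentrations was equilibrated for 10 min in 50 µL with 1 nM of a 5′-radiolabelled pool with 7 randomized nucleotides and DNA-annealed flanks.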
Take B1: the binding signal is 0.00287 KA relative to UGCAUGU.

For the molecule B2, the binding signal was 0.00141 KA relative to UGCAUGU.

As for B3, the binding signal was 0.00313 KA relative to UGCAUGU.

As to B4, the binding signal was 0.0157 KA relative to UGCAUGU.

Consider B5, for which the binding signal was 0.0296 KA relative to UGCAUGU.

Take B6: the binding signal was 0.0209 KA relative to UGCAUGU.

As to B7, the binding signal is 0.000478 KA relative to UGCAUGU.

For the molecule B8, the binding signal was 0.0119 KA relative to UGCAUGU.

On to B9, for which the binding signal is 0.0172 KA relative to UGCAUGU.

For B10, the binding signal was 0.00783 KA relative to UGCAUGU.

In the case of B11, the binding signal was 0.00679 KA relative to UGCAUGU.

For B12, the binding signal was 0.00514 KA relative to UGCAUGU.

For the molecule B13, the binding signal was 0.00688 KA relative to UGCAUGU.

Regarding B14, the binding signal was 0.025 KA relative to UGCAUGU.

For the molecule B15, the binding signal was 0.00431 KA relative to UGCAUGU.

Regarding B16, the binding signal is 0.00593 KA relative to UGCAUGU.

For B17, the binding signal was 0.013 KA relative to UGCAUGU.

For B18, the binding signal is 0.0278 KA relative to UGCAUGU.

For B19, the binding signal is 0.00729 KA relative to UGCAUGU.

As for B20, the binding signal was 0.0105 KA relative to UGCAUGU.

Turning to B21, the binding signal is 0.00276 KA relative to UGCAUGU.

With B22, the binding signal was 0.00856 KA relative to UGCAUGU.

Turning to B23, the binding signal was 0.00118 KA relative to UGCAUGU.

Turning to B24, the binding signal is 0.0142 KA relative to UGCAUGU.

With B25, the binding signal was 0.0147 KA relative to UGCAUGU.

Take B26: the binding signal was 0.0149 KA relative to UGCAUGU.

As for B27, the binding signal was 0.0103 KA relative to UGCAUGU.

Take B28: the binding signal is 0.014 KA relative to UGCAUGU.

For B29, the binding signal is 0.00749 KA relative to UGCAUGU.

For B30, the binding signal was 0.00431 KA relative to UGCAUGU.

Consider B31, for which the binding signal is 0.0109 KA relative to UGCAUGU.

(Values after paper PMC9911399, “Two distinct binding modes provide the RNA-binding protein RbFox with extraordinary sequence specificity”.)
